Whole data set: some 33,000 sequences, median “E-score (-0.5 to 0.5)” near -0.016, cut for the highest 2% near 0.31. Some of the results follow.
Each sequence was assayed against Cst6 (UniProt P40535) (assay: PBM E-score (8-mer binding enrichment) (E-score (-0.5 to 0.5)); higher = stronger / more preferred TF binding; most listed sequences are background and not binding sites). Details: protein concentration: 200 nM; construct: GST-DNA-binding domain.
In short: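 Yeast transcription factors carrying a GST tag, as full-length proteins or DNA-binding domains, were produced by PURExpress in vitro transcription/translation. About 100-200 nM protein was applied to universal all-10-mer Agilent arrays, double-stranded by primer extension on fresh or once-stripped slides. Bound protein was detected with fluorescent anti-GST, and scans were normalised with masliner. The Universal PBM Analysis Suite gave each ungapped eight-base word, pooled with its reverse complement, an E-score, a modified Wilcoxon-Mann-Whitney statistic.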

| Sequence | PBM E-score |
| --- | --- |
| CACGTTTA | 0.272 |
| CTCACCTA | 0.00557 |
| GGTGTGCA | -0.202 |
| TACTCCTA | -0.0124 |
| GTGAACCA | -0.0301 |
| CTAGTTCC | 0.0382 |
| CTCCAAAC | -0.0568 |
| AATTGTAG | 0.131 |
| CCGCGAAG | -0.215 |
| AAAAGCGG | -0.0308 |
| CGACGCCA | 0.00886 |
| AGTGTCCA | 0.0974 |
| ACCTCGAT | -0.149 |
| AAGACAGG | -0.0516 |
| GAGAGTCC | -0.321 |
| CTTTATGA | 0.13 |
| AAATAAAG | 0.104 |
| TCACTAAA | 0.227 |
| CGACTAAA | -0.0148 |
| AGCACAGG | -0.104 |
| ATCACGAA | 0.126 |
| AGAACTGC | -0.175 |

| Sequence | PBM E-score |
| --- | --- |
| GACAGTTA | 0.00849 |
| AGATCACG | 0.107 |
| TCCGCGAA | 0.0184 |
| CCATTGGG | -0.244 |
| GGCAGTAC | -0.141 |
| ATTTCAAG | 0.0685 |
| AAGAGAGA | -0.0292 |
| GCCGGTAC | -0.162 |
| GTATACAA | 0.125 |
| GCGCATCC | 0.0721 |
| ACATGTCC | -0.041 |
| AAAAGCTT | -0.0885 |
| CAGTACAA | -0.108 |
| GTACGGGA | -0.191 |
| AATCTCAC | -0.00101 |
| CAGTGATA | 0.0488 |
| AATTTAAG | 0.102 |
| AATTCCAG | 0.176 |
| CATCCTCA | 0.102 |
| ATTGGCTC | -0.129 |
| CGAAGGTC | -0.225 |
| ATCGGGGG | -0.387 |

| Sequence | PBM E-score |
| --- | --- |
| ACGCCCTC | 0.0162 |
| GAATACAA | 0.116 |
| AGCGAAAT | -0.0757 |
| GCGAAAGA | -0.0882 |
| GACAAAAA | 0.26 |
| CGTTGCGC | 0.0417 |
| ACTGTTCT | -0.131 |
| CATTAACC | 0.189 |
| ATCAGTCG | -0.00867 |
| ATGAATTA | 0.19 |
| CCTACGTC | 0.305 |
| AAAACCAA | 0.0847 |
| ATTCACTC | 0.106 |
| CATTCCCG | 0.0388 |
| ATACTTGG | -0.0756 |
| GGGGAGTA | -0.145 |
| AATGGGTG | 0.00666 |
| ATCTATGG | -0.2 |
| GTGTCAAA | 0.132 |
| AAAGGCCG | -0.0945 |
| ACGAGACA | -0.0189 |
| CATCTATA | 0.162 |

| Sequence | PBM E-score |
| --- | --- |
| CCGCCCGG | -0.107 |
| GAGCAGTA | 0.0605 |
| GCCTCAGC | -0.06 |
| AATTATGC | 0.207 |
| CTACTTTA | 0.0594 |
| CTCGTGTC | -0.0541 |
| TGAGTCAA | 0.041 |
| AGCCAGCA | -0.332 |
| AACGGTAC | 0.167 |
| AATGATCA | 0.118 |
| GCATTCGC | -0.333 |
| AAGATTCT | -0.0651 |
| GGATGTAC | -0.0995 |
| GTTCACGA | -0.0448 |
| CTCTACAG | -0.036 |
| CAGTTCTA | -0.0942 |
| ATGGCTAA | 0.00459 |
| ATAGCTAA | -0.13 |
| AAACGCGG | 0.145 |
| CGTTAGTC | -0.095 |
| ATCTCCCG | -0.163 |
| ACTAGGAA | -0.163 |

| Sequence | PBM E-score |
| --- | --- |
| CCGCCGAC | -0.261 |
| ATCGAATC | 0.113 |
| GCAAATGC | 0.0351 |
| AATTAGGT | 0.151 |
| CGGACGTA | 0.187 |
| AGCGACCA | -0.172 |
| CTCTGAAA | -0.0419 |
| ATTAAGCC | 0.0234 |
| GTGGCTGA | -0.0339 |
| GTAGGGAA | -0.103 |
| GTCTTACA | 0.0773 |
| ACAGCTTC | -0.14 |
| CAAAACCA | 0.116 |
| GAATCTTA | 0.176 |
| ATAAGTGC | -0.0634 |
| GATTCACA | -0.0103 |
| AAAACCTG | -0.0979 |
| GTCTCAAA | 0.0686 |
| CCCTCGTC | -0.0534 |
| CGTCCTGA | 0.0582 |
| CTCAAAAC | 0.175 |
| CGGGATGA | 0.0154 |
